From PubChem BioAssay AID1345082 (National Center for Advancing Translational Sciences (NCATS), 2018)
The whole screen tested about 94,000 compounds, of which about 4,000 (4.3%) were called active. This list was built around the results that the source calls inconclusive (neither active nor inactive); the mix of calls is not that of the screen. The call rests on the fitted dose curve; in most records, active means well fitted inhibition curve with a large enough effect; inconclusive means small, poorly fitted or top-dose-only effect; inactive means no such curve, though single readings can be large or run the other way. Where the call is inconclusive, the potency comes from a doubtful curve fit.

assay: Cytotoxic Profiling in NIH 3T3 Cell Line of Diverse Libraries Using Quantitative High-Throughput Screening; settings: NIH 3T3 viability, CellTiter-Glo ATP luminescence, 48-72 h; series mostly up to 96.7 µM; further: nearly all actives have a fitted effect of over 55% in size
Method in brief: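 Viability of NIH 3T3 cells after 48 or 72 hr compound treatment at 37 °C was assessed by CellTiter-Glo, with luminescence imaged following a 10 min room-temperature step.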
Potency means the concentration at half of the fitted maximal effect; tags describe the fitted curve by direction and shape.

Compound | Potency
COc1ccc(-c2noc([C@@H]3CCCN3C(=O)Cc3ccccc3)n2)cc1 | inconclusive: 50.1 µM [inhibitor, single point]
CCOc1cccc(CNC(=O)C2CCN(c3cc(C(F)(F)F)ncn3)CC2)c1 | inconclusive: 10 µM [inhibitor, full curve, poor fit]
O=C1CCC(CNC(=O)c2nc(-c3ccccc3)cc3[nH]ccc23)N1 (stereo not drawn) | inconclusive: 100 µM [inhibitor, partial curve, poor fit]
O=C(NC1CCCN(c2nc3ncccc3o2)C1)c1ccc(Cl)nc1 (stereo not drawn) | inconclusive: 56.2 µM [inhibitor, partial curve, poor fit]
CCC(C)NC(=O)C1CCN(C(=O)c2nnn3c2COC(c2ccc(C)cc2)C3)CC1 (stereo not drawn) | inactive
CC(C)CN1CCN(C(=O)c2ccc3c(c2)CC(=O)N3Cc2ccc(F)cc2)CC1 | inconclusive: 50.1 µM [inhibitor, partial curve, poor fit]
CCn1ncc(N2CCCC(CC(=O)Nc3ccc(C)c(F)c3)C2)cc1=O (stereo not drawn) | inconclusive: 50.1 µM [inhibitor, partial curve, poor fit]
Cc1nn(C(=O)CCC(=O)N2CCC(CCOc3ccccc3F)C2)c2ccccc12 (stereo not drawn) | inactive
CCc1nncn1C1CCN(S(=O)(=O)c2cccc(OC)c2)CC1 | inactive
Cc1cc(C)cc(NC(=O)N2CCCC(c3noc(COc4ccccc4)n3)C2)c1 (stereo not drawn) | inconclusive: 44.7 µM [inhibitor, partial curve, poor fit]
CCCN1CCC2(CCN(C(=O)Nc3ccc(Cl)cc3)CC2)Oc2ccccc21 | inconclusive: 39.8 µM [inhibitor, partial curve]
COc1ccc2[nH]cc(CCNC(=O)C3Cn4cccc4C(=O)N3Cc3ccccc3)c2c1 (stereo not drawn) | inactive
CC1(Cc2ccc3c(c2)OCO3)CCCN(C(=O)c2ccc3n[nH]nc3c2)C1 (stereo not drawn) | inconclusive: 50.1 µM [inhibitor, partial curve, poor fit]
O=C(NC1CCCc2c1[nH]c1ccccc21)c1cccnc1 (stereo not drawn) | inactive
O=C1NCc2ccccc2CC12CCCN(Cc1ccc(Cl)s1)C2 (stereo not drawn) | inconclusive: 63.1 µM [inhibitor, partial curve, poor fit]
CC(C)C1CN(C(=O)c2ncoc2C2CC2)CCCN1Cc1ccc(F)cc1 (stereo not drawn) | inconclusive: 35.5 µM [inhibitor, partial curve, poor fit]
COCCn1c(=O)c(C(=O)NCCc2ccc(OC)cc2)nc2cccnc21 | inactive
c1ccc(CN2CCNc3cc(Nc4ccc(N5CCOCC5)cc4)ncc3C2)cc1 | inconclusive: 50.1 µM [inhibitor, partial curve, poor fit]
CN(C)CCOc1cccc2c1c(NC(=O)c1ccn[nH]1)nn2-c1ccc(F)cc1 | inconclusive: 50.1 µM [inhibitor, partial curve, poor fit]
CN(C)CCCC(=O)NC[C@@H]1CC[C@H]2C[C@@H]1C2(C)C | inconclusive: 89.1 µM [inhibitor, partial curve, poor fit]
O=C(CN1CC2CC(C1)[C@H]1CCCC(=O)N1C2)NCc1ccc(OC(F)(F)F)cc1 (stereo partly drawn) | inactive

Compound | Potency
O=C(c1ccccc1F)N1CCCC(c2nc(C3CCOCC3)no2)C1 (stereo not drawn) | inactive
Cn1nc(C(=O)NCc2cccnc2)c2c1CN(C(=O)COc1ccccc1)C2 | inactive
FC(F)(F)c1cccc(C2=NOC3(CCN(Cc4ccsc4)C3)C2)c1 (stereo not drawn) | inconclusive: 44.7 µM [inhibitor, partial curve, poor fit]
COCCN1CCCC[C@]2(C[C@H](C(=O)O)[C@H](c3ccco3)N2C(=O)Cc2cccs2)C1=O | inconclusive: 79.4 µM [inhibitor, single point]
COc1ccccc1CN1CCCn2nc(C)c(-c3cnccc3C)c21 | active: 44.7 µM
C[S+](=O)([O-])N1CCC(Cn2ccc3c(N4CCOCC4)nc(-c4cncnc4)cc32)CC1 | inconclusive: 3.55 µM [inhibitor, full curve, poor fit]
CCCCc1cc(C[C@@H]2C[C@H](NC(=O)NCC)C2(C)C)no1 | inconclusive: 100 µM [inhibitor, partial curve, poor fit]
O=C(CC1CCCN(c2cn[nH]c(=O)c2)C1)N1CC=C(c2ccccc2)CC1 (stereo not drawn) | inconclusive: 44.7 µM [inhibitor, partial curve, poor fit]
CCC(C(=O)Nc1ccc2c(c1)CN(Cc1ccccc1OC)C(=O)C(C)O2)c1ccccc1 (stereo not drawn) | inconclusive: 44.7 µM [inhibitor, partial curve, poor fit]
O=C1CCN(C(=O)C2CCN(S(=O)(=O)c3ccc4c(c3)CCC4)CC2)CCCCCCN1 | inactive
O=C(NCCCc1ccccc1)c1cc(-c2cccs2)c2cccn2n1 | inconclusive: 44.7 µM [inhibitor, partial curve]
COc1cccc(-c2cc(-c3ccc(=O)[nH]c3)c3cncn3c2)c1 | inconclusive: 56.2 µM [inhibitor, partial curve, poor fit]
CCc1cc(=O)n(CC(=O)Nc2ccc(OC)cc2)c(-c2cccc(F)c2)n1 | inconclusive: 28.2 µM [inhibitor, partial curve, poor fit]
Clc1ccccc1CNC1(Cc2cc(-c3ccccc3)on2)COC1 | inconclusive: 100 µM [inhibitor, partial curve, poor fit]
COc1cccc(CN2CCc3nc(N(C)Cc4cccnc4)[nH]c(=O)c3CC2)c1 | inconclusive: 44.7 µM [inhibitor, partial curve, poor fit]
Cc1noc(C)c1-c1cc2c(cc(-c3ccccc3)n2C)c(Nc2ccncn2)n1 | inconclusive: 15.8 µM [inhibitor, full curve, poor fit]
OC1(CN2CCCN(c3nc4ccccc4s3)CC2)CNCCOC1 (stereo not drawn) | inconclusive: 50.1 µM [inhibitor, partial curve, poor fit]
Cc1oc2c(c1C(=O)NCCN1CCCC1)CN(Cc1ccc(F)cc1)CC2 | inactive
O=C(c1ccc(Cl)nc1)N1CCC(C(=O)N2CCC(c3nc4ncccc4[nH]3)CC2)C1 (stereo not drawn) | inactive
CNC(=O)[C@H]1C[C@H](Oc2cccnc2)CN1C(=O)Nc1cccc(F)c1 | inactive
COc1ccc(CN2Cc3[nH]cnc3C[C@H]2c2nc(-c3ccc(C(F)(F)F)cc3)no2)cc1 | inconclusive: 50.1 µM [inhibitor, partial curve, poor fit]

Compound | Potency
COc1cc(C)c2c(c1C)C[C@H](C(C)C(=O)NCc1ccco1)CC2 (stereo partly drawn) | inconclusive: 56.2 µM [inhibitor, partial curve, poor fit]
COc1cc(OCc2ccccc2)ccc1CN1CC[C@@]2(O)CCNC[C@H]2C1 | active: 20 µM
CCn1ccc(C(=O)NCCc2noc(-c3cccnc3)n2)n1 | inconclusive: 70.8 µM [inhibitor, partial curve, poor fit]
N#CC1CCN(C(=O)c2cc(-c3cccs3)c3cccn3n2)CC1 | inconclusive: 100 µM [inhibitor, partial curve, poor fit]
Cc1ccc(C(=O)N2CCC3(CC2)NC(=O)N(c2cccc(Cl)c2)N3)c(C)c1 | inconclusive: 50.1 µM [inhibitor, partial curve, poor fit]
COc1ccc(F)cc1S(=O)(=O)N1CCC(Oc2ccc(C(N)=O)cn2)CC1 | inactive
CCCCCNC(=O)Cc1csc2nc(C)c(-c3cc(C)n(-c4cc(F)ccc4C)n3)c(=O)n12 | inconclusive: 28.2 µM [inhibitor, partial curve, poor fit]
COc1cccc(CCC(=O)N2CCC(c3n[nH]c(=O)n3-c3ccc(C)cc3)CC2)c1 | inconclusive: 44.7 µM [inhibitor, partial curve, poor fit]
COc1ccc(N2CCN(C(=O)CN3C(=O)C(c4ccccc4)=NC3(C)C)CC2)cc1 | inactive
COc1ccc(NC(=O)N[C@@H]2C=C[C@@H](c3c(C)nn(CCC#N)c3C)C2)cc1 | inconclusive: 100 µM [inhibitor, partial curve]
CC1(c2ccccc2)N(Cc2ccccc2)C(=O)OC12CCN(c1ccncc1)CC2 (stereo not drawn) | inconclusive: 56.2 µM [inhibitor, partial curve, poor fit]
COc1ccc(-c2cc(C(=O)N3CCOCC3)c3cnn(C)c3n2)cc1 | inactive
CCc1cc(N2CCC(NCCc3cccc(Cl)c3)CC2)nc(C)n1 | active: 39.8 µM
COc1cccc(C(=O)N2CCCN(c3cc(-c4ccc(Cl)cc4)[nH]n3)CC2)c1OC | inconclusive: 44.7 µM [inhibitor, partial curve, poor fit]
COc1ccc(C(=O)N2CCC(n3c(C)cnc3-c3ccccc3)CC2)c(OC)c1 | inactive
C[C@]1(CO)[C@H]2Cc3sc(NC(=O)C4CCCCC4)nc3[C@@H](CC(=O)NCc3cccnc3)[C@]2(C)CC[C@H]1O | inconclusive: 89.1 µM [inhibitor, single point]
CN1Cc2ccc(Nc3ccccc3)nc2C(C)(C(=O)NCCc2ccccn2)C1 (stereo not drawn) | inconclusive: 63.1 µM [inhibitor, partial curve, poor fit]
Cn1cnc(S(=O)(=O)N2CCC(c3noc(-c4ccncc4)n3)C2)c1 (stereo not drawn) | inactive
Cc1noc(C)c1CC(=O)NC1CCCc2c1[nH]c1c(Cl)cccc21 (stereo not drawn) | active: 20 µM
O=C([C@@H]1C[C@H](Oc2ccccc2)CN1C(=O)C1CCCCC1)N1CCCC1 | inconclusive: 70.8 µM [inhibitor, single point]
CCCCCNc1ncnc2c1CN(c1ccccc1)C(=O)N(C)C2 | inconclusive: 56.2 µM [inhibitor, partial curve, poor fit]
